# Results from PubChem BioAssay AID2100 (National Center for Advancing Translational Sciences (NCATS), 2009).
# The campaign covered roughly 300,000 compounds. About 1,200 (0.4%) were called active. This list was built around the results that the source calls inconclusive (neither active nor inactive); the mix of calls is not that of the screen. The call rests on the fitted dose curve; in most records, active means well fitted inhibition curve with a large enough effect; inconclusive means small, poorly fitted or top-dose-only effect, or another doubt; inactive means no such curve, though single readings can be large or run the other way. Potencies of inconclusive entries are doubtful fits and often do not repeat.
# Target: Lysosomal alpha-glucosidase (Homo sapiens) (UniProt P10253)
# Assay: qHTS Assay for Inhibitors and Activators of Human alpha-Glucosidase Cleavage of Glycogen
# Details: recombinant GAA, glycogen substrate, Amplex Red glucose oxidase fluorescence; series mostly up to 76.4 µM
# Summary of the method: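 qHTS, 1536-well; enzyme 4 nM final; cpd up to 77 uM; substrate bovine liver glycogen 30 ug; 50 mM citrate/phosphate pH 5.0, 0.01% Tween-20; 37 C, 40 min; Amplex Red detection 45 min RT; Hill fit → AC50.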
# Potency means the concentration at half of the fitted maximal effect.
row,SMILES,Potency
1,COc1cccc(NC(=O)Nc2cccs2)c1,"inconclusive: 35.5 µM [inhibitor, partial curve]"
2,Cc1cc(Nc2ccccc2)n(-c2ccc(Br)cc2)n1,"inconclusive: 28.2 µM [inhibitor, partial curve]"
3,O=C(c1csc(Nc2cccc3ccccc23)n1)N1CCCC1,"inconclusive: 20 µM [inhibitor, partial curve, poor fit]"
4,CC(=O)Nc1ccc(S(=O)(=O)Nc2nc3ccccc3nc2Nc2ccc(O)c(C(=O)O)c2)cc1,"inconclusive: 44.7 µM [inhibitor, single point]"
5,CC(=O)c1cccc(NC(=O)Nc2cc3c(cc2N2CCCC2)n(C)c(=O)n3C)c1,"inconclusive: 5.01 µM [inhibitor, full curve]"
6,NNc1nc(-c2ccccc2Cl)c2cc(Br)ccc2n1,"inconclusive: 7.94 µM [inhibitor, partial curve]"
7,Cc1ccc(C2=[N+]([O-])C3(CCCCC/C3=N\O)N(O)C2(C)C)o1 (stereo not drawn),"inconclusive: 35.5 µM [inhibitor, partial curve]"
8,CCOc1ccc(Nc2oc(-c3ccc(COc4ccc(C)cc4)o3)nc2C#N)cc1,"inconclusive: 6.31 µM [inhibitor, full curve, poor fit]"
9,COCCn1c(N)c(C(=O)NCC2CCCO2)c2nc3ccccc3nc21 (stereo not drawn),inactive
10,COc1cccc(/C=N/n2c(-c3cccs3)n[nH]c2=S)c1,"inconclusive: 28.2 µM [inhibitor, single point]"
11,CCCNC(=S)NNC(=O)c1cccs1,"inconclusive: 20 µM [inhibitor, partial curve]"
12,CCOc1ccc(OC(=O)NC(c2ccccc2)C(Cl)(Cl)Cl)cc1 (stereo not drawn),"inconclusive: 7.94 µM [inhibitor, partial curve]"
13,CCOC(=O)c1cc(C)n(Cc2ccc(OCC)c(OC)c2)c1C,"inconclusive: 11.2 µM [inhibitor, single point]"
14,COC(=O)c1ccccc1NC(=O)C1CC(=O)N(c2ccc(C)c(C)c2)C1 (stereo not drawn),"inconclusive: 22.2 µM [inhibitor, single point]"
15,O=C(Cn1c(=O)n(Cc2ccc(C(=O)NCc3ccc4c(c3)OCO4)cc2)c(=O)c2ccccc21)Nc1cccc(Cl)c1,inactive
16,O=C(N/N=C(\Cc1ncc[nH]1)c1ccccc1)c1ccccc1,"inconclusive: 3.14 µM [inhibitor, single point]"
17,Cc1ccc(N2CC(O)=C(c3nc4ccccc4c(=O)[nH]3)C2=N)cc1C,"inconclusive: 11.2 µM [inhibitor, partial curve]"
18,CCCOc1ccc(NC(=O)CC2Nc3ccccc3NC2=O)cc1 (stereo not drawn),"inconclusive: 39.8 µM [inhibitor, partial curve]"
19,CNCCOc1ccccc1C(C)(C)C,"inconclusive: 2.8 µM [inhibitor, partial curve]"
20,Cc1nc(Nc2ccccc2)sc1-c1ccccc1,"inconclusive: 3.98 µM [inhibitor, full curve]"
21,CCOc1ccc(/C=C/c2nc(C#N)c(NCCCN(C)C)o2)cc1,"inconclusive: 39.8 µM [inhibitor, partial curve]"
22,COc1ccc(CCNc2nc(-c3ccc(O)cc3)cs2)cc1OC,"inconclusive: 39.8 µM [inhibitor, single point]"
23,COc1ccc(C)cc1NC(=S)NNC(=O)c1ccccc1Cl,"inconclusive: 39.8 µM [inhibitor, partial curve]"

row,SMILES,Potency
1,CN/N=C(\Cc1nc2ccccc2[nH]1)c1ccc([N+](=O)[O-])cc1,"inconclusive: 35.5 µM [inhibitor, partial curve]"
2,CCCC(=O)Nc1cc(-c2nnc3c4ccccc4c(C)nn23)ccc1C,inactive
3,Cc1ccc(OCc2n[nH]c(=S)n2-c2ccccc2)cc1,"inconclusive: 50.1 µM [inhibitor, single point]"
4,O=C(c1cc(-c2ccncc2)nc2ccccc12)N1CCN(c2ccccc2O)CC1,"inconclusive: 11.2 µM [inhibitor, partial curve]"
5,Cc1cccc(CC(=O)Nc2c(C(=O)Nc3cccc(F)c3)oc3ccccc23)c1,"inconclusive: 10 µM [inhibitor, partial curve]"
6,CCOC(=O)NC1(NCC(C)C)Oc2ccccc2O1,"inconclusive: 25.1 µM [inhibitor, partial curve]"
7,Cc1ccc(OCC(=O)N(Cc2ccc(N(C)C)cc2)C2CCS(=O)(=O)C2)cc1 (stereo not drawn),"inconclusive: 50.1 µM [inhibitor, single point]"
8,C/C(=N\NC(=O)CSCc1ccccc1Cl)c1cc(O)ccc1O,active: 35.5 µM
9,O=C(COC(=O)CC(c1ccccc1)c1ccccc1)Nc1ccc(F)c(F)c1,"inconclusive: 12.6 µM [inhibitor, partial curve, poor fit]"
10,CCOC(=O)c1ccc(-c2ccc(C3Nc4ccccc4C(=O)N3O)o2)cc1 (stereo not drawn),"inconclusive: 17.8 µM [inhibitor, partial curve]"
11,CCS(=O)(=O)Nc1c(C(=O)O)[nH]c2ccccc12,active: 5.01 µM
12,CCN(CC)c1cc(Cl)c2nonc2c1N,"inconclusive: 11.2 µM [inhibitor, partial curve]"
13,Cc1cc(Nc2ccc(Cl)cc2)n(-c2cccc(Cl)c2)n1,"inconclusive: 28 µM [inhibitor, single point]"
14,CCCCc1ccc(NC(=O)CSCc2cc(=O)[nH][nH]2)cc1,"inconclusive: 28 µM [inhibitor, single point]"
15,COc1cc(/C=N/N2C(=O)CSC2=S)cc(Br)c1O,"inconclusive: 15.7 µM [inhibitor, partial curve]"
16,O=C(CSc1nncs1)NCCCc1ccccc1,active: 10 µM
17,COc1cc(/C=N/Nc2nncn2N)ccc1OCc1c(C)no[n+]1[O-],"inconclusive: 12.6 µM [inhibitor, partial curve]"
18,COc1ccc(OCc2ccc(-c3nc(C#N)c(NCc4cccnc4)o3)o2)cc1,"inconclusive: 17.8 µM [inhibitor, partial curve]"
19,O=C1C(Cl)=C(N2CCCCC2)C(=O)C(Cl)=C1c1cnc(N2CCCCC2)s1,"inconclusive: 28.2 µM [inhibitor, single point]"
20,CCCc1cc(=O)oc2cc(C)cc(OCC(=O)NC(Cc3c[nH]c4ccc(O)cc34)C(=O)O)c12 (stereo not drawn),"inconclusive: 7.08 µM [inhibitor, full curve]"
21,COc1cc(/C=C/C(=O)OCC(=O)N2CCN(S(=O)(=O)c3ccc(C)cc3C)CC2)ccc1O,"inconclusive: 25.1 µM [inhibitor, partial curve]"
22,Cc1ccc(NC(=O)CCC(=O)c2cccs2)c(O)c1,"inconclusive: 35.5 µM [inhibitor, single point]"
23,c1ccc2[nH]c(NN=C3CCCCCC3)nc2c1,"inconclusive: 14 µM [inhibitor, partial curve]"

row,SMILES,Potency
1,O=C(NNC(=S)NCC1CCCO1)c1ccc(S(=O)(=O)N2CCOCC2)cc1 (stereo not drawn),"inconclusive: 5.01 µM [inhibitor, full curve]"
2,COc1ccc(S(=O)(=O)Nc2cc(C)c(O)cc2C(C)C)cc1,"inconclusive: 28.2 µM [inhibitor, partial curve]"
3,COc1ccccc1C(=O)N/N=C(\C)CC(=O)Nc1ccccc1NC(C)=O,"inconclusive: 28.2 µM [inhibitor, single point]"
4,Cc1snnc1C(=O)NC(=S)Nc1ccccc1,"inconclusive: 31.4 µM [inhibitor, single point]"
5,CN1C(=O)SC(Nc2ccccc2C(=O)O)C1=O (stereo not drawn),"inconclusive: 44.7 µM [inhibitor, partial curve]"
6,O=C(O)CCCN1C(=O)C2C3CC(C2C1=O)C1C(c2ccccc2)c2sc(=O)[nH]c2SC31 (stereo not drawn),"inconclusive: 50.1 µM [inhibitor, single point]"
7,COCCCNC(=S)N1CCN(S(=O)(=O)c2ccc(OC)cc2)CC1,inactive
8,Nc1n[nH]c2ccccc12,active: 3.55 µM
9,Cc1ccc(NC(=O)C2CCCN2S(=O)(=O)c2ccc3nc(-c4ccccc4)[nH]c3c2)cc1C (stereo not drawn),"inconclusive: 22.4 µM [inhibitor, partial curve]"
10,CC(C)(C)N=C1SCC(C)(/C=N/O)S1 (stereo not drawn),inactive
11,CC(C(=O)Nc1ccccc1)n1nnc2sc3c(c2c1=O)CCCC3 (stereo not drawn),inactive
12,CCOc1ccccc1NC(=O)CCc1c(C)nc2cc(-c3ccccc3)nn2c1C,inactive
13,CC/C(=C\C(=O)c1ccncc1)Nc1ccc(O)cc1,active: 44.7 µM
14,Oc1ccccc1/C=N/N1CCN(c2ccccn2)CC1,"inconclusive: 31.6 µM [inhibitor, single point]"
15,CNc1sc(C(=O)c2cccs2)c(N)c1-c1nc2ccccc2s1,"inconclusive: 12.6 µM [inhibitor, partial curve, poor fit]"
16,Cn1c(/C(C#N)=C/c2ccc(C(F)(F)F)cc2)nc2ccccc21,"inconclusive: 44.7 µM [inhibitor, partial curve, poor fit]"
17,COCCCNc1oc(-c2ccccc2OC)nc1C#N,"inconclusive: 20 µM [inhibitor, partial curve]"
18,COc1cc(/C=N/NC(=O)NC2CCCCC2)cc(OC)c1O,inactive
19,S=c1nc(-c2cccc(Cl)c2)[nH][nH]1,"inconclusive: 35.5 µM [inhibitor, single point]"
20,Cc1ccc(-c2cc(N)n(Cc3cccc(Cl)c3)n2)cc1,inactive
21,C=CC[n+]1c(/C=C2\C=Cc3cc(C)ccc3N2CC)ccc2ccccc21,"inconclusive: 17.8 µM [inhibitor, partial curve]"
22,S=C1SCN(CC2CC2)CN1CC1CC1,"inconclusive: 50.1 µM [inhibitor, single point]"
